# Test results published in PubChem BioAssay AID1479 (National Center for Advancing Translational Sciences (NCATS), 2009).
# Where “and” joins values, the source holds several entries; their conditions need not be identical. Equal entries are not always repeated. The whole screen tested about 280,000 compounds, of which about 820 (0.29%) were called active. The shares of active, inactive and inconclusive entries below differ from those in the screen. Calls follow the shape of the dose curve; as a rule, active = well fitted curve in either direction with a large enough effect; inconclusive = small, poorly fitted or top-dose-only effect; inactive = flat fitted curve, though single readings scatter. No potency is given beside an inconclusive call; the fits are too rough.
# Experiment: Total Fluorescence Counterscreen for Inhibitors of the Interaction of Thyroid Hormone Receptor and Steroid Receptor Coregulator 2
# Conditions: TRb/SRC2 Texas Red total fluorescence interference; series mostly up to 106 µM; fluorescence change, negative = quenching: at the top concentration
# How it was run: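 Human TRb ligand-binding domain at 0.6 uM with 20 nM Texas Red SRC2 peptide in Tris buffer containing 1 uM T3 and 5% DMSO, incubated with compound 5 h at ambient temperature. Total fluorescence (555/632 nm) calculated as parallel + 2 × perpendicular.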
# % is scaled to controls: 0 for no effect and ±100 for the full control effect; potency is read from the fitted curve at half-maximal effect; tags tell the direction and shape of the fitted curve or compound fluorescence and quenching.
SMILES,"fluorescence change, negative = quenching",Potency
c1csc(CNc2ncnc3ccc(-c4ccc5c(c4)OCO5)cc23)c1,inactive: -1.18%,
Cc1nnc(N/N=C/c2cccc(OCc3ccc(Cl)c(Cl)c3)c2)n1N,inactive: 0.0871%,
Cc1ccc(NC(=O)c2cnccn2)cc1S(=O)(=O)N(C)C,inactive: -1.88%,
CCOC(=O)/C=C1\CC(C(=O)OCC)Oc2c(OC)cccc21 (centres undefined),inactive: -0.0241%,
Cc1cc2c(cc1S(=O)(=O)NCc1ccc(N(C)C)cc1)OCC(=O)N2,,"inconclusive [falling, partial curve, poor fit]"
CCOc1ccccc1CNC(=O)Nc1cn(CC(C)C)c(=O)c2ccccc12,,"inconclusive [falling, full curve, poor fit]"
CCc1ccc(CN(C(=O)c2nc(SC)ncc2Cl)C2CCS(=O)(=O)C2)cc1 (centres undefined),,"inconclusive [falling, full curve, poor fit]"
CCCCC(CC)C1OCC(C[N+]2(C)CCOCC2)O1 (centres undefined),,"inconclusive [falling, partial curve, poor fit]"
Cc1ccc(S(=O)(=O)c2[nH]c(-c3ccccc3)nc2SCC(=O)O)cc1,,"inconclusive [quencher, partial curve]"
O=C1/C(=C/Nc2cccc([N+](=O)[O-])c2)CCc2ccccc21,inactive: -1.95%,
CCC(Oc1ccccc1)C(=O)Nc1nnc(S(=O)(=O)Nc2ccccc2)s1 (centres undefined),,"inconclusive [falling, partial curve, poor fit]"
CCOC(=O)c1c(C2CC2)csc1NC(=O)COC(=O)c1ccc[n+]([O-])c1,,"inconclusive [falling, partial curve, poor fit]"
COc1cc2cc(C(=O)O)n(C)c2c(OC)c1OC,inactive: -3.56%,
Cc1cc2nc3c(=O)n(C)c(=O)n(C)c3nc2cc1N=CN(C)C,,"inconclusive [falling, partial curve, poor fit]"
COc1ccc(C(=O)CCC(=O)Nc2ccccc2C)cc1,,"inconclusive [falling, full curve, poor fit]"
Cc1ccc2occ(CC(=O)Nc3ccc(S(N)(=O)=O)cc3)c2c1,,"inconclusive [falling, full curve, poor fit]"
Cc1cc(C)c2c(=O)n(CC(=O)NC3CCCC3)sc2n1,inactive: -3.61%,
COc1ccccc1-[n+]1c(C)cc(/C=C2\Sc3ccccc3N2C)cc1C,inactive: -2.9%,
Cc1nc2c(-c3ccccc3)c(C)nn2c(C)c1CCC(=O)NCc1cccc(Cl)c1,,"inconclusive [falling, full curve, poor fit]"
CN1CCN(CCCNC(=O)c2cnn(-c3ccccc3)c2C2CCN(C(=O)OC(C)(C)C)CC2)CC1,,inconclusive
N#C/C(=C\c1ccc(N2CCOCC2)o1)c1ccccc1,,"inconclusive [fluorescent, partial curve]"
CC1=C/C(=C/N(C)c2ccccc2)C(=O)S1,inactive: 3.57%,

SMILES,"fluorescence change, negative = quenching",Potency
Cc1ccc(-c2cc(C(=O)NCCc3ccc(S(N)(=O)=O)cc3)c3ccccc3n2)cc1,,"inconclusive [rising, single point]"
CC(C)(C)C(=O)Cn1c(=O)n(-c2ccc(Cl)c(Cl)c2)c(=O)c2c3c(sc21)CCCC3,,"inconclusive [falling, full curve, poor fit]"
COc1ccc(NC(=O)NC(C)c2c(-n3cccc3)sc3c2CCN(C)C3)c(OC)c1 (centres undefined),,"inconclusive [quencher, full curve]"
Cc1onc(-c2ccccc2)c1NC(=O)N(Cc1ccccc1)C(C)C,inactive: -0.888%,
O=C(NCc1cccc(Cl)c1)C1CCCN(c2ncnc3onc(-c4ccc(F)cc4)c23)C1 (centres undefined),,"inconclusive [falling, full curve, poor fit]"
COc1ccc(-c2cccc(NS(=O)(=O)c3cc(C)ccc3OC)c2)nn1,,"inconclusive [falling, full curve, poor fit]"
C=CC(C1=CC(=O)C=CC1=O)c1ccccc1 (centres undefined),inactive: -2.09%,
C[N+]1=C(/C=C/Nc2ccccc2Cl)C(C)(C)c2ccccc21,,active: 44.7 µM [fluorescent]
COc1ccc(OC)c(NC(=O)COC(=O)c2cc3c(s2)CCC3)c1,,"inconclusive [quencher, partial curve]"
CCOc1ccc(Nc2nc(Cc3nnc(SCC(=O)c4ccc(C)c(C)c4)o3)cs2)cc1,inactive: 0.225%,
CC1C/C(=C\c2cccnc2)C(=O)/C(=C/c2cccnc2)C1 (centres undefined),inactive: 0.0145%,
CCOc1ccc(-c2nonc2NC(=O)COc2ccccc2)cc1,,"inconclusive [falling, partial curve, poor fit]"
CCc1cccc(C)c1NC(=O)c1cn2c3c(ccc(Cl)c3c1=O)OC(C)C2 (centres undefined),,active: 100 µM [quencher]
O=C(N=Nc1c(O)n(Cc2ccccc2)c2ccccc12)c1ccc(O)cc1,inactive: -2.48%,
Cc1nc(-c2cccc(F)c2)sc1CCNC(=O)C(=O)Nc1ccc2c(c1)OCO2,,"inconclusive [falling, full curve, poor fit]"
Cc1ccc(OCC(=O)Nc2ccc(S(=O)(=O)N(Cc3ccccc3)c3ccccc3)cc2)cc1,,"inconclusive [falling, partial curve, poor fit]"
Nc1cc(Cl)c(O)c(Cl)c1,,"inconclusive [quencher, partial curve]"
COc1ccc(-n2ncc(C(=O)N3CCc4ccccc4C3)c2C2CCN(C(=O)OC(C)(C)C)CC2)cc1,inactive: -4.85%,
CCCCC1CN2C(CCC(C)C2c2ccc(Br)cc2)C(=O)O1 (centres undefined),inactive: -1.67% [at 11.2 µM] and inactive: -5.35% [at 11.2 µM] and inactive: -0.269% [at 11.2 µM],
CCOC(=O)c1c(NC(=O)c2cc(C(C)C)on2)sc(C)c1C,,"inconclusive [quencher, full curve]"
CCOc1cc(-c2nc(-c3ccc(Br)cc3)no2)cc(OCC)c1OCC,inactive: -3.53%,
COc1ccc(-c2cc(C(F)(F)F)n3nc(C(=O)NCC45CC6CC(CC(C6)C4)C5)cc3n2)cc1,,"inconclusive [falling, full curve, poor fit]"
